In the supplement of paper PMC3334620:
In all, about 33,000 sequences were measured (“E-score (-0.5 to 0.5)”: median about -0.017, highest 2% from about 0.3 on). Some of the results follow.

Molecular target: T1, Sut1 (UniProt P53032)
T1 sequence: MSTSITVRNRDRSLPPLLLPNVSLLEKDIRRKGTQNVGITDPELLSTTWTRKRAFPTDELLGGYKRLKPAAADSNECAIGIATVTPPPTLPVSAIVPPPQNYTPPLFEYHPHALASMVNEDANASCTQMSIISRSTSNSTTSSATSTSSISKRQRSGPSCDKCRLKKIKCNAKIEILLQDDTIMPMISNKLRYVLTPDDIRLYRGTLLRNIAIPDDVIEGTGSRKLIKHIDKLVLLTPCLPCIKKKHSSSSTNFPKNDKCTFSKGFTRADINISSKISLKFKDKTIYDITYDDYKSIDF
Test: PBM E-score (8-mer binding enrichment) (E-score (-0.5 to 0.5)); higher = stronger / more preferred TF binding; most listed sequences are background and not binding sites
Settings: protein concentration: 200 nM; construct: GST-full length
Summary of the method: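 Yeast transcription factors carrying a GST tag, as full-length proteins or DNA-binding domains, were produced by PURExpress in vitro transcription/translation. About 100-200 nM protein was applied to universal all-10-mer Agilent arrays, double-stranded by primer extension on fresh or once-stripped slides. Bound protein was detected with fluorescent anti-GST, and scans were normalised with masliner. The Universal PBM Analysis Suite gave each ungapped eight-base word, pooled with its reverse complement, an E-score, a modified Wilcoxon-Mann-Whitney statistic.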

Row | Sequence | PBM E-score
1 | AGGGCGTG | -0.179
2 | CGCCCGGC | -0.0194
3 | CCCTCGTA | -0.2
4 | GGAACCGA | 0.144
5 | CGTGTATC | 0.0285
6 | CCAATGAA | -0.134
7 | CCCCCTAC | -0.243
8 | ATATAGTC | 0.215
9 | ACCACTGA | -0.0449
10 | AAGATTCC | 0.153
11 | GCTGAACC | -0.153
12 | ACACCCGA | -0.0273
13 | ATGAAATC | 0.179
14 | GGAGTACC | 0.143
15 | GGAATTAC | 0.181
16 | CGAGAGAA | -0.0301
17 | CGAGGCAC | -0.181
18 | CCGTAATA | 0.179
19 | CTCGTTTC | 0.00631
20 | TACGTTGA | 0.0239
21 | AATAGGAT | 0.0954
22 | CGCTCTCA | -0.203
23 | AGCTTCAA | 0.0933
24 | TAGTGTCA | 0.0294
25 | AGAATCCT | -0.0099

Row | Sequence | PBM E-score
26 | ATTCACCC | 0.0462
27 | ATTTTAAC | 0.122
28 | AAGACAGC | -0.0476
29 | TCCCGGAA | 0.228
30 | GAAATCGA | 0.0701
31 | CCCTTCGA | -0.127
32 | GTGGGGTA | 0.00147
33 | AGAACTCC | 0.31
34 | GAGGTTGC | -0.0546
35 | AACATGAA | -0.0497
36 | TGTTCGAA | 0.103
37 | ACTCGTTG | 0.0106
38 | AAAGTAGC | 0.0295
39 | AAGCAATC | 0.0607
40 | ACTCTGTA | -0.139
41 | ATTACATG | 0.177
42 | ATGACGGG | -0.178
43 | CATGGAAG | 0.0729
44 | AACCCCCT | -0.356
45 | TACAGTAA | 0.104
46 | CTTATGAA | 0.0219
47 | CGTTATCA | 0.013
48 | AAGTTTTA | 0.214
49 | GTTCGAAA | 0.214
50 | ATAGGTTC | 0.104

Row | Sequence | PBM E-score
51 | TGGCCCCA | -0.354
52 | AGAGAACC | 0.0467
53 | CCTAAGAG | -0.0768
54 | ACTTGGGC | -0.18
55 | GAATTCCA | 0.174
56 | AAATCTTC | 0.0921
57 | AGTCACGC | -0.152
58 | CCGATCGA | 0.0665
59 | ACCTGCCT | -0.158
60 | ATACGGAA | 0.348
61 | CTAGATAG | -0.0627
62 | GATAGAAA | 0.201
63 | TCCCAGGA | -0.29
64 | GGCCCATA | -0.114
65 | CCGTAGAA | 0.12
66 | ACCGCGAC | -0.049
67 | GGACGCTA | -0.229
68 | AAGCTTGC | -0.198
69 | CCCGGTCC | -0.0342
70 | CACGTGGG | -0.261
71 | AGAAAATA | 0.242
72 | TTAAGAAA | 0.173
73 | AAAAATAA | 0.326
74 | GCTCAAGC | -0.0665
75 | ATTCCCGG | 0.0955

Row | Sequence | PBM E-score
76 | AGGTAGAG | -0.141
77 | CGGCAGTA | -0.0903
78 | ACAGCGAC | -0.0841
79 | ACGGTTGC | -0.215
80 | ACTTAAAA | 0.307
81 | ATGCGCGC | -0.0785
82 | GTTATCGA | 0.0725
83 | CGGCTATC | -0.0164
84 | CTGGCCAA | -0.139
85 | AAGGGGCC | -0.0872
86 | CCCATAGG | -0.129
87 | CACATTCC | 0.105
88 | GTATCAAA | 0.134
89 | CCTTGGCA | -0.0942
90 | CCCTGCAA | -0.135
91 | CTTAACAC | -0.122
92 | AAGCCCTA | -0.0927
93 | ACGGGAGT | 0.0599
94 | AGTTATTG | 0.26
95 | CACCTCGC | -0.18
96 | CAAGCGTA | -0.0952
97 | ATCTTTTC | 0.0527
98 | TGTGGAAA | 0.202
99 | GGTGGTCA | -0.0753
100 | ACTCCACC | 0.109

Row | Sequence | PBM E-score
101 | AACTATTC | 0.156
102 | AGGCAGAG | -0.0321
103 | CCCGCTGA | -0.277
104 | ATTCCCGC | 0.0649
105 | AGGAGCCG | -0.281
106 | CCCTATTC | 0.145
107 | AGAGAACA | 0.00919
108 | ACATAGCC | 0.0291
109 | AAAACTCC | 0.356
110 | AAAGTGTG | -0.148
111 | CCAACACC | 0.00941
112 | GTCGTAAA | 0.0993
113 | AGAACAAT | 0.109
114 | CGTATAGC | 0.1
115 | TAGCAATA | 0.181
116 | ACCAAAGA | 0.204
117 | ATTGGGAG | -0.119
118 | CACTACTC | 0.117
119 | ATGCACTG | -0.145
120 | AATATTTA | 0.267
121 | TCCACACA | 0.0789
122 | AGATCGAC | -0.129
123 | GGCATTGA | 0.0468
124 | AAATTCGA | 0.141
125 | GCCAAGGC | -0.29

Row | Sequence | PBM E-score
126 | CAGTGTCG | -0.0291
127 | CTAAAAAG | 0.251
128 | CCAAATGA | 0.209
129 | GATCATTA | 0.159
130 | CGAACGCC | -0.0644
131 | AGCGGAAT | 0.0494
132 | AGCTGGGC | -0.0645
133 | GCAGTCAA | -0.234
134 | AGTTACAG | 0.156
135 | ACACGGTC | -0.137
136 | CACGATAG | 0.0209
137 | AATATTGC | 0.121
138 | CCTGAATA | -0.0158
139 | CACACAGC | -0.198
140 | CCTTGTCA | -0.0563
141 | AGCGCTCA | -0.0562
142 | AAATGTGA | 0.119
143 | AATGACGA | 0.117
144 | AGATACTG | 0.0671
145 | ACTCTCAC | -0.0416
146 | AATTGCGT | 0.134
147 | CATAATAA | 0.131
148 | ACCGTATA | -0.0848
149 | CAGAGGCA | -0.224
150 | AAGCCGCT | 0.00481

Row | Sequence | PBM E-score
151 | ATAGAAAA | 0.175
152 | AGACGGAT | 0.0639
153 | GAACGCGA | -0.0883
154 | CGAATTCG | 0.112
155 | CGCGCACC | -0.0354
156 | ATATGTAC | 0.167
157 | AGAGCAGA | -0.0671
158 | CGTCCAGA | -0.249
159 | GCATATCC | -0.196
160 | AGGCGTTA | 0.0291
161 | CAATCCAA | 0.0981
162 | ATCGGATC | -0.00393
163 | CTCGCCGA | -0.072
164 | AGTATAAT | 0.247
165 | ACGTGTAC | 0.0149
166 | TACTACCA | -0.103
167 | CAAAGATA | 0.0622
168 | GACTACTC | 0.0743
169 | CCGTGCAG | 0.0321
170 | CCGGACAC | 0.112
171 | ATCTTGCA | 0.102
172 | GAAGCACC | -0.1
